Measurements taken from article PMC4336329 (PLoS ONE, 2015).
Among all 310,000 compounds or so, about 14,000 (4.5%) showed an effect of 50% or more. The effect is printed as a negative number. The list shows a part of the results.
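Also: peak tail current of the secondary pulse compared with the same well before compound.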

Each compound was assayed against human ether-à-go-go-related gene (hERG) potassium channel (human, UniProt Q12809) (assay: primary screen, population patch clamp on CHO cells stably expressing hERG).
human ether-à-go-go-related gene (hERG) potassium channel, sequence (Q12809 whole entry, looked up): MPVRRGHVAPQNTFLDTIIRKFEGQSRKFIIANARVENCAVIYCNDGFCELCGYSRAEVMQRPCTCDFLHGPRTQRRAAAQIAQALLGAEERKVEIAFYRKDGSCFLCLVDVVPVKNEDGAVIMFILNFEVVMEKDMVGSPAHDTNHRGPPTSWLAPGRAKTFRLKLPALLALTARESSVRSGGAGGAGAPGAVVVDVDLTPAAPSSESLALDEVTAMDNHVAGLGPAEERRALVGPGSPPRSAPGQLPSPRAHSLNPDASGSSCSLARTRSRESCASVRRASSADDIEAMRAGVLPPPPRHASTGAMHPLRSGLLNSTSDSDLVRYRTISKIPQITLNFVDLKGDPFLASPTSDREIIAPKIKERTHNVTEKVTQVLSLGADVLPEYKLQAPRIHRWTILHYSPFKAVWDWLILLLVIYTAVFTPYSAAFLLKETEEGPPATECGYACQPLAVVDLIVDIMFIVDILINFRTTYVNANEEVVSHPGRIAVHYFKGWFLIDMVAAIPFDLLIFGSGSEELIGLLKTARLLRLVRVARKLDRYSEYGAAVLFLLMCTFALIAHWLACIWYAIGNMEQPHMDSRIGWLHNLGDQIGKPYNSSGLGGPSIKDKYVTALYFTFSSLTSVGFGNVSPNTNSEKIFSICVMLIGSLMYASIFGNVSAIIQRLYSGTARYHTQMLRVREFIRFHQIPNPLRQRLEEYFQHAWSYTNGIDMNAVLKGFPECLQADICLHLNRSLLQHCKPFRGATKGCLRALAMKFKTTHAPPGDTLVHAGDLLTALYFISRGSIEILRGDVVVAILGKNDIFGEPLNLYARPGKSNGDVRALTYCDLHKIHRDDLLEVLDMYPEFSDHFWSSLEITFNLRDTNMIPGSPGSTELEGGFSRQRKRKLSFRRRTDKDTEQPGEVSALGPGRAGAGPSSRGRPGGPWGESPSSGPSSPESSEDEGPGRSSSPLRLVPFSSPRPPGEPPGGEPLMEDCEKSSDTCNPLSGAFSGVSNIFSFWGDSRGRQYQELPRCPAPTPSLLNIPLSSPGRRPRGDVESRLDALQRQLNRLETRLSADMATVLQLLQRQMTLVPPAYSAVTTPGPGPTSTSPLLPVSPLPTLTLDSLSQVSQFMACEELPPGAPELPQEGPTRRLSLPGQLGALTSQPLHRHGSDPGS
With `COC1=CC(=Cc2c(N)n3nc(CC(=O)N4CCCCC4)sc3nc2=O)C=C(OC)C1=O` the “hERG current change (%, negative = inhibition) at 10uM” value was 9.27%. `C=CCNC(=O)c1ccncc1` was tested, and the “hERG current change (%, negative = inhibition) at 10uM” value was 6.85%. `CCC(=O)Nc1ccccc1C(=O)NC1CCCCC1` was tested, and the “hERG current change (%, negative = inhibition) at 10uM” value was -1.67%. For `O=C1NCC(COCC2CC=CCC2)O1` (stereo not drawn), the “hERG current change (%, negative = inhibition) at 10uM” value was -8.02%. For `COc1ccc(-c2csc3ncnc(Nc4ccc(O)cc4)c23)cc1`, the “hERG current change (%, negative = inhibition) at 10uM” value was 11.2%. With `O=C(Cn1cc(C(F)(F)F)ccc1=O)Nc1cc(S(=O)(=O)N2CCOCC2)ccc1Cl` the “hERG current change (%, negative = inhibition) at 10uM” value was -16%. In the case of `CCOC(=O)C1=C(C)NC(=O)NC1c1ccc(OC)c(CN2CCOCC2)c1` (stereo not drawn), the “hERG current change (%, negative = inhibition) at 10uM” value is reported as 0.39%. In the case of `COCCN(CCOC)c1nc(-c2ccccc2)nc2ccccc12`, the “hERG current change (%, negative = inhibition) at 10uM” value is reported as -68.2%. With `CN1CCN(Cc2nc(Cc3ccccc3)no2)CC1c1ccccc1` (stereo not drawn) the “hERG current change (%, negative = inhibition) at 10uM” value was -9.54%. `COc1ccc(NC(=O)C2CCCN2S(=O)(=O)c2ccc3c(c2)CC(C)N3C(C)=O)cc1OC` (stereo not drawn) was tested, and the “hERG current change (%, negative = inhibition) at 10uM” value was 9.19%. With `O=C(C1CCCC1)N1CCN(S(=O)(=O)c2cccc(Cl)c2Cl)CC1` the “hERG current change (%, negative = inhibition) at 10uM” value was 1.24%. In the case of `CCOc1ccc(C(c2nnnn2C(C)(C)C)N2CCN(C(=O)c3ccco3)CC2)cc1` (stereo not drawn), the “hERG current change (%, negative = inhibition) at 10uM” value is reported as -69.3%. With `O=C(NCCOc1ccccc1F)c1cc(F)c(F)cc1Cl` the “hERG current change (%, negative = inhibition) at 10uM” value was -35%. With `CC(C)NC(=O)c1ccccc1NC(=O)CCc1ccccc1` the “hERG current change (%, negative = inhibition) at 10uM” value was -0.576%. With `CC(C)CCNC(=O)NC(=O)CSc1ccc(S(=O)(=O)N2CCOCC2)cn1` the “hERG current change (%, negative = inhibition) at 10uM” value was -1.25%. `COC(=O)CSc1nnc(CNc2ccc(Cl)cc2)n1-c1ccccc1` was tested, and the “hERG current change (%, negative = inhibition) at 10uM” value was -33.3%. With `CN(C)CCNC(=O)C(=O)Nc1ccc2c(c1)N(S(=O)(=O)c1cccs1)CCC2` the “hERG current change (%, negative = inhibition) at 10uM” value was -2.98%. `Cc1ccc(NC(=O)O/N=C/c2ccc(Br)cc2)cc1` was tested, and the “hERG current change (%, negative = inhibition) at 10uM” value was 1.12%. In the case of `COc1cc2c(cc1OC)CN(C(=O)CCc1c[nH]c3ccccc13)[C@H](C(=O)O)C2`, the “hERG current change (%, negative = inhibition) at 10uM” value is reported as 18.8%. With `CCCCCC/C(=N/O)c1ccccn1` the “hERG current change (%, negative = inhibition) at 10uM” value was -8.5%. `Cn1c(Cc2cccs2)nnc1SCC(=O)Nc1ccc(C(N)=O)cc1` was tested, and the “hERG current change (%, negative = inhibition) at 10uM” value was 11%. `CC1CN(c2nc3c(c(=O)n(Cc4ccc(Cl)c(Cl)c4)c(=O)n3C)n2C)CC(C)O1` (stereo not drawn) was tested, and the “hERG current change (%, negative = inhibition) at 10uM” value was -35.7%. `CC(C)C(OC(=O)c1cccs1)C(=O)NCc1ccc2c(c1)OCO2` (stereo not drawn) was tested, and the “hERG current change (%, negative = inhibition) at 10uM” value was 23.9%. With `O=C(Nc1nccs1)c1ccc(F)c(S(=O)(=O)N2CCOCC2)c1` the “hERG current change (%, negative = inhibition) at 10uM” value was -18.8%. For `Cc1[nH]c2ccccc2c1/C=N/Nc1nc(Nc2ccccc2)nc(N2CCOCC2)n1`, the “hERG current change (%, negative = inhibition) at 10uM” value was -26.3%. With `CCOc1c(Nc2ccccc2O)c(=O)c1=O` the “hERG current change (%, negative = inhibition) at 10uM” value was 20.7%. In the case of `COc1ccc(NS(=O)(=O)c2ccc3oc4ccccc4c3c2)cn1`, the “hERG current change (%, negative = inhibition) at 10uM” value is reported as 17.4%. `Brc1ccc(N=C/C=C/C=C/Nc2ccc(Br)cc2)cc1.Cl` was tested, and the “hERG current change (%, negative = inhibition) at 10uM” value was -7.95%. With `O=C(NCNC(=O)NC1C(=O)NC(=O)N1CO)NC1C(=O)NC(=O)N1CO` (stereo not drawn) the “hERG current change (%, negative = inhibition) at 10uM” value was -1.09%. `CCN(CC)C(=O)C1CCCN(c2ccc([N+](=O)[O-])cc2/C=N/NC(=O)c2ccccc2)C1` (stereo not drawn) was tested, and the “hERG current change (%, negative = inhibition) at 10uM” value was -45.4%. In the case of `COc1ccc(C(=O)Nc2nc3ccccc3c(=O)[nH]2)cc1`, the “hERG current change (%, negative = inhibition) at 10uM” value is reported as 2.8%. With `CCOc1ccc(N(CC(=O)N2CCOCC2)S(=O)(=O)c2ccc(Cl)cc2)cc1` the “hERG current change (%, negative = inhibition) at 10uM” value was -36.6%. `CCOC(=O)c1ccc(COC(=O)CNC(=O)CNC(=O)c2ccc(OC)cc2)o1` was tested, and the “hERG current change (%, negative = inhibition) at 10uM” value was 9.35%. In the case of `COc1ccc(N2CCc3c(C)nc4c(OC)cccc4c32)cc1`, the “hERG current change (%, negative = inhibition) at 10uM” value is reported as -73.5%. In the case of `COc1ccc(N=Cc2c(C)[nH][nH]c2=O)cc1`, the “hERG current change (%, negative = inhibition) at 10uM” value is reported as 7.25%. For `CCCCN(C(=O)CSc1c(C)c(C)cc(C)c1C)c1c(N)n(CCC)c(=O)[nH]c1=O`, the “hERG current change (%, negative = inhibition) at 10uM” value was 13%. In the case of `CC1=C(C(=O)Nc2ccccc2F)C(c2cccs2)C2=C(CCCC2=O)N1` (stereo not drawn), the “hERG current change (%, negative = inhibition) at 10uM” value is reported as 6.93%. In the case of `O=C(NCCNC1CCCCC1)c1ccco1`, the “hERG current change (%, negative = inhibition) at 10uM” value is reported as 8.45%. With `CC12CCC3C(CC=C4CC(O)CCC43C)C1C/C(=C\c1cccc(F)c1)C2=O` (stereo not drawn) the “hERG current change (%, negative = inhibition) at 10uM” value was 7.89%. `COc1ccccc1OCC(=O)NCC1CCCN(C(=O)c2ccccc2SC)C1` (stereo not drawn) was tested, and the “hERG current change (%, negative = inhibition) at 10uM” value was 0.932%. For `O=C(N/N=C\c1cc(Br)c(Br)o1)c1cncc(Br)c1`, the “hERG current change (%, negative = inhibition) at 10uM” value was 7.62%. For `Cc1ccc(S(=O)(=O)NCCC(=O)NCC(c2ccco2)N2CCCCC2)cc1C` (stereo not drawn), the “hERG current change (%, negative = inhibition) at 10uM” value was -45.3%. `Cc1c(/C=N\NC(=O)c2ccc(F)cc2)cnn1C` was tested, and the “hERG current change (%, negative = inhibition) at 10uM” value was 10.9%. For `CCOC(=O)Cc1csc(NC(=O)COc2ccc3ccccc3c2)n1`, the “hERG current change (%, negative = inhibition) at 10uM” value was -30.5%. For `Cn1nc(C(=O)N2CCN(c3ccccc3)CC2)c2c1-c1ccccc1S(=O)(=O)C2`, the “hERG current change (%, negative = inhibition) at 10uM” value was -40.9%.
